PubChem BioAssay AID485294 (National Center for Advancing Translational Sciences (NCATS), 2010)
Among all 370,000 compounds or so, about 150 (0.041%) were called active. Inconclusive results, whose numbers are uncertain, are shown with a selection of clear calls. The call rests on the fitted dose curve; in most records, active means well fitted inhibition curve with a large enough effect; inconclusive means small, poorly fitted or top-dose-only effect; inactive means flat fitted curve, though single readings scatter. No potency is given beside an inconclusive call; the fits are too rough.

target: Beta-lactamase (Escherichia coli (strain K12)) (UniProt P00811); assay: qHTS Inhibitors of AmpC Beta-Lactamase (assay with detergent); details: AmpC hydrolysis of nitrocefin, absorbance 480 nm, 0.01% Triton; series mostly up to 114 µM; further: nearly all actives have a fitted effect of over 25% in size
Chain of UniProt P00811 (P00811 whole entry, looked up): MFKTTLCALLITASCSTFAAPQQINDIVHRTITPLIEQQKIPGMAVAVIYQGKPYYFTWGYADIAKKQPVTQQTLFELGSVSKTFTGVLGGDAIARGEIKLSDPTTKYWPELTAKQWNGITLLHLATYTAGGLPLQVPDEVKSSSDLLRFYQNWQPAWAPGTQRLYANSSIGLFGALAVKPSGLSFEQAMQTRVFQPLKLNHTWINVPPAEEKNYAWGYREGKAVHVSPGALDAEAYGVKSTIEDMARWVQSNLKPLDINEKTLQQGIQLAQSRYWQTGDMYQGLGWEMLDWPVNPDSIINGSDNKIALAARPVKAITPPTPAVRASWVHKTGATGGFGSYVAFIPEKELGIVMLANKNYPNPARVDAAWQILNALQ
Procedure, shortened: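 AmpC (5.3 nM in the dispensed reagent) in 20 mM phosphate pH 7.0 with 0.01% (detergent screen) or 0.0001% Triton X-100 was preincubated with compounds for 15 min at room temperature. Nitrocefin was then added from an 800 uM solution, and hydrolysis was followed at 480 nm.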
Potency means the concentration at half of the fitted maximal effect; tags describe the fitted curve by direction and shape.

SMILES	Potency
O=S(=O)(c1ccc(NC(=S)N/N=C/c2cccc(Oc3ccccc3)c2)cc1)N1CCOCC1	inactive
Cc1cc(C)n(C(=O)CSc2nc3ccccc3o2)n1	active: 28.2 µM
CN[C@H]1C[C@H]2O[C@@](C)([C@H]1OC)n1c3ccccc3c3c4c(c5c6ccccc6n2c5c31)C(=O)NC4	inconclusive [inhibitor, partial curve, poor fit]
CCN(CC)C(=S)SCC(=O)c1ccccc1	inconclusive [inhibitor, full curve]
COc1ccc(/C=C/C(=O)NCCCN2CCCC2)cc1	inconclusive [inhibitor, single point]
Cc1ccc(S(=O)(=O)Nc2ccc(=O)n(Cc3ccc(Cl)c(Cl)c3)c2)cc1	inconclusive [inhibitor, partial curve]
Cc1ccc(CNC(=O)c2cnn3c(C)c(Cc4c(F)cccc4Cl)c(C)nc23)cc1	inactive
O=C(NCc1ccc(Cl)cc1Cl)C1CCN(S(=O)(=O)c2ccc3c(c2)OCCCO3)CC1	inactive
CC(NC(=O)CCNS(=O)(=O)c1ccc2c(c1)c(=O)n(C)c(=O)n2C)c1ccccc1 (configuration not stated)	inconclusive [inhibitor, full curve, poor fit]
Cc1nn(CC(=O)NC(=O)c2ccccc2)c(C)c1[N+](=O)[O-]	inconclusive [inhibitor, partial curve, poor fit]
COc1cc(C(=O)Nc2ccc(-n3cnnn3)c(C)c2)cc(OC)c1OC	inconclusive [inhibitor, single point]
CCc1ccc(C(=O)NNc2ccc(S(N)(=O)=O)cc2)cc1	inactive
COc1cc(/C=C(\C#N)C(=O)Nc2ccccc2)ccc1OCCN1CCOCC1	inconclusive [inhibitor, full curve]
Cc1ccc(/C=C/C(=O)Nc2ccc(S(=O)(=O)Nc3cc(C)nc(C)n3)cc2)cc1	inconclusive [inhibitor, full curve, poor fit]
O=C1C(C=NCc2cccnc2)=C(O)c2ccccc21	inconclusive [inhibitor, full curve]
O=C1CSC(=O)N1CCOCCN1C(=O)CSC1=O	inconclusive [inhibitor, full curve, poor fit]
CCN(c1ccccc1)S(=O)(=O)c1nnc(NC(=O)C(C)Oc2ccccc2)s1 (configuration not stated)	inactive
COc1ccc(CCN2C(=O)c3cccc4c(C(=O)N5CCCCC5)ccc(c34)C2=O)cc1OC	inconclusive [inhibitor, single point]
COc1ccccc1NC(=O)C(CC(C)C)NC(=O)C1CCCCC1 (configuration not stated)	inactive
Cc1ccc(C)c(N2CCN(C(=O)c3cc4ccccc4oc3=O)CC2)c1	inactive
COc1ccc(Br)cc1C(=O)Nc1cc(C)cc(C)c1	inconclusive [inhibitor, partial curve, poor fit]

SMILES	Potency
Cc1cc(N2CCOCC2)nc(SCc2ccc(Cl)cc2Cl)n1	inconclusive [inhibitor, partial curve, poor fit]
CC(=O)Nc1ccc(C2NC(=O)c3ccccc3O2)cc1 (configuration not stated)	inconclusive [inhibitor, full curve, poor fit]
O=C1COc2ccc(C(=O)COC(=O)/C=C/c3ccco3)cc2N1	inconclusive [inhibitor, full curve, poor fit]
CSc1ncccc1C(=O)NNC(=O)c1ccc(NS(=O)(=O)c2cccs2)cc1	inconclusive [inhibitor, full curve, poor fit]
NC(=O)C1=C[C@@H](c2ccc(C(F)(F)F)cc2)C[C@@H](OCCCCO)O1	inactive
Cc1nn(C)c2c1c(-c1ccccc1)cc(=O)n2Cc1c(F)cccc1Cl	inactive
CC1(C)CC(=O)C2=C(C1)Nc1[nH]c(=S)[nH]c(=O)c1C2c1ccccc1 (configuration not stated)	inactive
Cc1ccccc1Nc1c(-c2ccccc2O)nc2sccn12	inactive
CCn1c(=NC(=O)c2ccc(N3C(=O)CCC3=O)cc2)sc2c(OC)ccc(OC)c21	inactive
CCN(CC)c1ccc(NC(=O)CN2C(=O)CC(C)(C)S(=O)(=O)c3ccccc32)c(C)c1	inconclusive [inhibitor, full curve]
O=C1c2oc3ccccc3c(=O)c2C(c2cccc(O)c2)N1Cc1ccc(F)cc1 (configuration not stated)	inactive
CCCC(=O)N(CCN1CCOCC1)c1nc2c(OC)ccc(OC)c2s1	inconclusive [inhibitor, full curve, poor fit]
O=C(CN1C(=O)C2(OCCO2)c2ccccc21)c1ccc(Cl)cc1	inconclusive [inhibitor, full curve, poor fit]
COc1cc(C(=O)Nc2ccc(N(C)C)cc2)cc(OC)c1OC	inconclusive [inhibitor, full curve, poor fit]
C/C(=N\NC(=O)C(N)=O)c1ccc2c(c1)OCCO2	inconclusive [inhibitor, full curve, poor fit]
O=C(c1ccc2ccccc2n1)N1CCN(c2ccccc2Cl)CC1	inconclusive [inhibitor, partial curve, poor fit]
Cc1ccc(NC(=O)c2cccc(S(=O)(=O)NCc3ccccc3)c2)nc1	inconclusive [inhibitor, full curve, poor fit]
CC(=O)Nc1ccc(S(=O)(=O)NCC(CCC(=O)O)C(F)(F)F)cc1 (configuration not stated)	inconclusive [inhibitor, full curve]
CCCCN(C(=O)c1cccc(S(=O)(=O)N2CCN(C)CC2)c1)c1c(N)n(CCCC)c(=O)[nH]c1=O	inconclusive [inhibitor, full curve, poor fit]
O=C(OCN1C(=O)c2ccccc2C1=O)c1cc(S(=O)(=O)N2CCOCC2)ccc1F	inconclusive [inhibitor, single point]
CCOC(=O)N1CCN(C(=O)Cn2nc(C)n3nc(-c4ccccc4)cc3c2=O)CC1	inconclusive [inhibitor, full curve, poor fit]
